PubChem BioAssay AID588453 (National Center for Advancing Translational Sciences (NCATS), 2011)
“And” between values parts separate entries of the source, which are not always exact repeats. Identical values can stand only once. Screen size: about 390,000 compounds; about 4,000 (1%) were called active. The inconclusive results got no clear call from the source; some entries with a clear call stand among them for comparison. The call rests on the fitted dose curve; in most records, active means well fitted inhibition curve with a large enough effect; inconclusive means small, poorly fitted or top-dose-only effect; inactive means no such curve, though single readings can be large or run the other way. Where the call is inconclusive, the potency comes from a doubtful curve fit.

Molecular target: Thioredoxin reductase 1, cytoplasmic (Rattus norvegicus) (UniProt O89049)
UniProt O89049, sequence (O89049 whole entry, looked up): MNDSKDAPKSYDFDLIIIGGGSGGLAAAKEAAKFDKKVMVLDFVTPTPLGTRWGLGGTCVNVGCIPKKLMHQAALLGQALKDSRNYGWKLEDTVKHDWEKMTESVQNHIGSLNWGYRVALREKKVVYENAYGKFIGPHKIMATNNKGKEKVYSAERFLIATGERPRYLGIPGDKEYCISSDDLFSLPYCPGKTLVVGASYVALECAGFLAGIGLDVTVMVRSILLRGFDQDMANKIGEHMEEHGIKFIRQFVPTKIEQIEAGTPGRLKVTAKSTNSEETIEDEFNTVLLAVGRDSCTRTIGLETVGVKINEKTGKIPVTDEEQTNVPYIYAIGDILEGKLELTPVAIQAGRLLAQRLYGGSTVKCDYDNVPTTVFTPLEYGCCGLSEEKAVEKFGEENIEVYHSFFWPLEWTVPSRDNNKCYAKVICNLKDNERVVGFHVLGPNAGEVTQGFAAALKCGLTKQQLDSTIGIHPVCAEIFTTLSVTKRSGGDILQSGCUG
Assay: qHTS Assay for Inhibitors of Mammalian Selenoprotein Thioredoxin Reductase 1 (TrxR1): qHTS; further: nearly all actives have a fitted effect of over 65% in size
Settings: recombinant rTrxR1, NADPH fluorescence consumption, selenite substrate; series mostly up to 114 µM
Summary of the method: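 Rat TrxR1 (90 nM in the dispensed reagent) was pre-reduced with 400 uM NADPH for 5 min at room temperature, then incubated with compound for 15 min. After 400 uM selenite was added, NADPH fluorescence (Ex 340/Em 450 nm) was followed for 8 min.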
Potency means the concentration at half of the fitted maximal effect; tags describe the fitted curve by direction and shape.

Row | Structure (SMILES) | Potency
1 | Cc1cc(C)c[n+](CC(=O)c2ccc(-c3ccccc3)cc2)c1 | inactive
2 | CCN(CC)C(=S)Nc1ccc([N+](=O)[O-])cc1 | inconclusive: 70.8 µM [inhibitor, partial curve]
3 | CC(C)c1ccc(C2CC(=O)N3CN(C4CCCCC4)CSC3=C2C#N)cc1 (stereo not given) | inconclusive: 10 µM [inhibitor, partial curve, poor fit]
4 | CCOC(=O)CSC1=NC(=O)/C(=C/c2ccc(OC)cc2)S1 | active: 15.8 µM
5 | COc1ccccc1N1CCN(C(=O)c2nn(C)c3c2CS(=O)(=O)c2ccccc2-3)CC1 | inconclusive: 35.5 µM [inhibitor, partial curve]
6 | CC(Oc1ccc2c(c1)oc(=O)c1ccccc12)C(=O)NCC1CCC(C(=O)O)CC1 (stereo not given) | inconclusive: 89.1 µM [inhibitor, partial curve, poor fit]
7 | Cn1cc(S(=O)(=O)N2CCCC2)cc1C(=O)Nc1ccc(F)cc1F | inconclusive: 28.2 µM [inhibitor, partial curve, poor fit]
8 | C=CCn1c(SCC(N)=O)nnc1-c1cc2c(s1)CCC(CC)C2 (stereo not given) | inconclusive: 79.4 µM [inhibitor, single point]
9 | Nc1ccc2nc(-c3ccc(N)c(Cl)c3)[nH]c2c1 | inconclusive: 70.8 µM [inhibitor, single point]
10 | COc1cccc(CCNC(=O)CC2C(=O)NCCN2Cc2ccc(C)o2)c1 (stereo not given) | inconclusive: 79.4 µM [inhibitor, partial curve]
11 | Cc1ccc(S(=O)(=O)/N=C2/C=C(Sc3ncn[nH]3)C(=O)c3ccccc32)cc1 | inconclusive: 1.78 µM [inhibitor, full curve, poor fit]
12 | O=C(/C=C/c1cccc([N+](=O)[O-])c1)c1ccc([N+](=O)[O-])o1 | active: 1.12 µM
13 | CN(C)CCNc1ncnc2sc(-c3ccccc3)cc12 | inactive
14 | CC1CCCCN1C(=S)Nc1ccc2nc3n(c(=O)c2c1)CCCCC3 (stereo not given) | inconclusive: 50.1 µM [inhibitor, partial curve]
15 | O=C(O)c1ccc(COc2ccc(CO)cc2Cl)cc1 | inactive
16 | Cc1nn(C(C)C(=O)NC2C(=O)N3C(C(=O)O)=C(CSc4nnnn4C)CSC23)cc1Cl (stereo not given) | inconclusive: 28.2 µM [inhibitor, partial curve]
17 | COc1cc(C2c3c(-c4cc(C)ccc4O)n[nH]c3C(=O)N2Cc2ccco2)cc(OC)c1OC (stereo not given) | inactive
18 | COc1ccccc1-c1cc(C(F)(F)F)nc(S(=O)(=O)CCCC(=O)NCc2ccc(F)cc2)n1 | inconclusive: 25.1 µM [inhibitor, single point]
19 | S=C(Nc1ccc(Br)cc1Cl)Nn1cnnc1 | inconclusive: 25.1 µM [inhibitor, single point]
20 | COc1ccc(NC(=O)c2cc(S(=O)(=O)N3CCCC(C)C3)cn2C)c(OC)c1 (stereo not given) | inactive

Row | Structure (SMILES) | Potency
21 | CC(=O)N1C(=O)/C(=C2\SC(=S)N(NS(=O)(=O)c3ccc(C)cc3)C2=O)c2ccccc21 | inconclusive: 15.8 µM [inhibitor, partial curve]
22 | COc1ccccc1-c1nnc(Sc2nc([N+](=O)[O-])nn2C)o1 | inconclusive: 39.8 µM [inhibitor, partial curve]
23 | CNC(=O)c1c(NC(=O)CCS(=O)(=O)c2ccc(C)cc2)sc2c1CCN(C(=O)OC)C2 | inconclusive: 89.1 µM [inhibitor, single point]
24 | CN1C(=O)/C(=C/c2ccccc2OCc2ccc(C(=O)O)cc2)NC1=S | inconclusive: 50.1 µM [inhibitor, partial curve, poor fit]
25 | CCn1cc(C2C3=C(CC(C)(C)CC3=O)N(c3ccccc3)C3=C2C(=O)CC(C)(C)C3)c(C)n1 | inconclusive: 79.4 µM [inhibitor, single point]
26 | CC(Sc1nnc(COc2ccc(Cl)cc2)n1Cc1ccco1)C(=O)N1CCNC1=O (stereo not given) | inconclusive: 56.2 µM [inhibitor, single point]
27 | Cc1sc(NC(=O)COc2ccccc2)c(C#N)c1-c1ccccc1 | inconclusive: 89.1 µM [inhibitor, single point]
28 | O=C(CSc1nc2ccc([N+](=O)[O-])cc2s1)NCC1CCCO1 (stereo not given) | inactive
29 | CC(C)(C)c1cc(/C=C(\C#N)C(N)=S)cc(C(C)(C)C)c1O | inconclusive: 79.4 µM [inhibitor, partial curve] and inconclusive: 21.2 µM [inhibitor, partial curve]
30 | N=C1/C(=C\c2ccc(Br)o2)C(=O)N=C2SC(CC(=O)N3CCCCC3)=NN12 | inconclusive: 56.2 µM [inhibitor, partial curve, poor fit]
31 | COc1ccc(/C=N/Nc2ccc(C(=O)O)cc2)cc1OC | inactive
32 | COc1ccc(S(=O)(=O)Nc2cc(Sc3ncn[nH]3)c(O)c3ccccc23)cc1 | inconclusive: 1.12 µM [inhibitor, full curve, poor fit]
33 | COc1ccc(C(=O)CCS(=O)(=O)c2ccc(C)cc2)cc1 | active: 14.1 µM
34 | COc1ccc(CC(=O)NC(=S)Nc2ccc(S(N)(=O)=O)cc2)cc1 | inconclusive: 39.8 µM [inhibitor, partial curve]
35 | Cc1c(O)c(CN2CCCCC2)cc2c3c(c(=O)oc12)CCC3 | inconclusive: 63.1 µM [inhibitor, single point]
36 | Cc1noc(NS(=O)(=O)c2ccc(NC(=O)CCn3c(=O)oc4ccccc43)cc2)c1C | inconclusive: 28.2 µM [inhibitor, partial curve, poor fit]
37 | COc1cc(NC(=S)NC(=O)CCc2ccccc2)cc(OC)c1 | inconclusive: 35.5 µM [inhibitor, partial curve]
38 | CCN(CC(=O)Nc1ccc(C(=O)Nc2ccc(OC)cc2)cc1)Cc1nc2ccccc2c(=O)[nH]1 | inactive
39 | Oc1ccc(Cl)cc1C1=NNC(c2cccs2)C1 (stereo not given) | inconclusive: 50.1 µM [inhibitor, partial curve]
40 | N#CC1=C(C2CC2)CC(c2ccccc2)C(C#N)=C1N (stereo not given) | inconclusive: 31.6 µM [inhibitor, single point]
